Measurements: PubChem BioAssay AID743279 (National Center for Advancing Translational Sciences (NCATS), 2014)
Among all 360,000 compounds or so, about 17,000 (4.7%) were called active. This list was built around the results that the source calls inconclusive (neither active nor inactive); the mix of calls is not that of the screen. Cut-off read from the data, not from the text of the source: active = activity change below about -50%; inconclusive = mostly about -30% to -49%; inactive = weaker than that.

Test: qHTS for Inhibitors of Inflammasome Signaling: IL-1-beta AlphaLISA Primary Screen
Settings: THP-1 LPS/ATP IL-1B secretion, 16 h; at 57.5 µM, hits give low values
In short: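 Secreted IL-1B measured by AlphaLISA bead assay after 16 h compound exposure of THP-1 cells; compounds (final up to 57.5 uM) added 1 h before LPS (250 ng/mL) and ATP (1.25 mM) stimulation; lower signal means less secretion.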
% is set by controls: 0 for no effect and ±100 for the full control effect.

Row | SMILES | activity change
1 | CCc1ccc(N2NC(=O)/C(=C/C=C/c3ccco3)C2=O)cc1 | inactive: -5.22%
2 | NC(=S)N=Nc1c(O)[nH]c2c(Cl)cc(Cl)cc12 | inconclusive: -42.7%
3 | O=C(NC(c1ccc(-c2ccccc2)cc1)c1cnccn1)C1CCN(CCOc2ccc(Cl)cc2Cl)CC1 (stereo not drawn) | inconclusive: -44.7%
4 | O=C(c1cc(C2CC2)nc2ccc(Br)cc12)N1N=C(C(F)F)CC1(O)C(F)F (stereo not drawn) | inconclusive: -31.6%
5 | OCCNCCNCc1ccccc1OCc1ccccc1 | inconclusive: -48.6%
6 | CC(NC(=O)C1CCN(C(=O)c2cccs2)CC1)c1ccc(S(N)(=O)=O)cc1 (stereo not drawn) | inactive: 8.51%
7 | CC1CCCCN1CCCNC(=O)CCCN1C(=O)c2cccnc2Sc2ccccc21 (stereo not drawn) | inactive: -0.657%
8 | COc1ccc(NC(=O)COn2nnc3ccc(Cl)cc32)cc1OC | inconclusive: -37.9%
9 | Cc1ccc(OCCNCC(O)COc2ccccc2)cc1 (stereo not drawn) | inactive: -26.2%
10 | C/C(=N\NC(N)=S)C1=CCC2C3CC[C@H]4CC(O)CC[C@]4(C)C3CC[C@]12C (stereo partly drawn) | active: -52.2%
11 | O=c1c2ccccc2nc2n1C(CSCc1ccc(Cl)cc1Cl)CS2 (stereo not drawn) | inconclusive: -36.1%
12 | CC1(Oc2cccnc2Cl)CCN(Cc2ccc(OC(F)(F)F)cc2)C1 (stereo not drawn) | active: -56.2%
13 | Cc1c(NC(=O)c2cc(-c3ccc(Br)cc3)on2)c(=O)n(-c2ccccc2)n1C | inactive: -16.8%
14 | O=C(c1cccs1)N1CCN=C1SCc1ccccc1 | inconclusive: -44.8%
15 | Cc1ccc(OCCC(=O)OCC(=O)N2CCN(S(=O)(=O)c3ccc(Cl)cc3)CC2)cc1 | active: -58.7%
16 | CCOC(=O)CN(C(=O)CSc1nnc2c(n1)[nH]c1ccc(F)cc12)c1ccccc1 | inconclusive: -46.7%
17 | COc1ccc(NC(=O)c2ccc3c(c2)n(C)c(=O)n3C)cc1 | active: -56.3%
18 | CC(=O)C[C@H]1c2cc(C(F)(F)F)ccc2S(=O)(=O)N1c1ccccc1 | inconclusive: -42.5%
19 | CCC1C(=O)CC(c2ccc([N+](=O)[O-])cc2)NC1c1ccc([N+](=O)[O-])cc1 (stereo not drawn) | active: -100%
20 | O=C(c1cccc(C(=O)N2CCN(c3ccccc3F)CC2)n1)N1CCN(c2ccccc2F)CC1 | inconclusive: -37.6%
21 | Cc1cc(C)cc(NC(=O)CN(c2ccc(F)cc2)S(C)(=O)=O)c1 | inconclusive: -34.5%
22 | CCOC(=O)c1cc(-c2ccccc2)sc1NC(=O)CN1C(=O)NC(CC)(c2ccccc2)C1=O (stereo not drawn) | inconclusive: -30.5%
23 | Cc1nn(Cc2ccc(Cl)cc2)c(C)c1NC(=O)c1ccc([N+](=O)[O-])cc1 | active: -74.3%
